Measured values from article PMC4336329 (PLoS ONE, 2015).
About 2,200 (0.71%) of roughly 310,000 compounds showed an effect of 50% or more. The effect is printed as a negative number. Some of the results follow.

Molecular target: human ether-à-go-go-related gene (hERG) potassium channel (human, UniProt Q12809)
Assay: primary screen, population patch clamp on CHO cells stably expressing hERG

human ether-à-go-go-related gene (hERG) potassium channel, sequence (Q12809 whole entry, looked up): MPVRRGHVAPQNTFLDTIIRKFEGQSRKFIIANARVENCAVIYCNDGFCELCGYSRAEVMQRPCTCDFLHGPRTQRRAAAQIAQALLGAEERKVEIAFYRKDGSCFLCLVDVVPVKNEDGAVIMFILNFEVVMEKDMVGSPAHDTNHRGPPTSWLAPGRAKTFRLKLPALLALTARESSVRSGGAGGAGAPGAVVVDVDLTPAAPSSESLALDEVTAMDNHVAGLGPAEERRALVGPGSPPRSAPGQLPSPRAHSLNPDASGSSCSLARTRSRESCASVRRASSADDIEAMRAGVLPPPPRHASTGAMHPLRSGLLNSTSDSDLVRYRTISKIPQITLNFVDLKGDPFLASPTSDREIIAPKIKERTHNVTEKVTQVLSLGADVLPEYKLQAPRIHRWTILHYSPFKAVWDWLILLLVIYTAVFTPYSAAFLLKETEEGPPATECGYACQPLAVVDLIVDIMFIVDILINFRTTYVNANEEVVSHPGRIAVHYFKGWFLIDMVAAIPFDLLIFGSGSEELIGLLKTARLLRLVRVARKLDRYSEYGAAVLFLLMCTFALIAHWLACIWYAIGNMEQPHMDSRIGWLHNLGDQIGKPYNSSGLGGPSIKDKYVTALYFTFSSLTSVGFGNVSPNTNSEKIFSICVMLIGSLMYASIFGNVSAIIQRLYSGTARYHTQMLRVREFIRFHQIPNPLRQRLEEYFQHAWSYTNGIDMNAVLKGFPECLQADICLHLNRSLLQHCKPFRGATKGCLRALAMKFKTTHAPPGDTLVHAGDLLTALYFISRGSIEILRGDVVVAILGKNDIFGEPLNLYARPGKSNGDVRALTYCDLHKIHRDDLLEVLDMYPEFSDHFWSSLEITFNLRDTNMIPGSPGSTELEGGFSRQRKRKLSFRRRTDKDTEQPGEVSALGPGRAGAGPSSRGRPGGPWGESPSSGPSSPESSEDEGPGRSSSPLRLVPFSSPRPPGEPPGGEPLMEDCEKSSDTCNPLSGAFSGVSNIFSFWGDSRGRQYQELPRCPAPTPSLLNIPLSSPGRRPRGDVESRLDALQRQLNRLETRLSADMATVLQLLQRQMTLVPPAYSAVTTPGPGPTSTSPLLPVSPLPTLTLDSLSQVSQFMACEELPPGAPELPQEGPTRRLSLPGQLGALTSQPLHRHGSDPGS

| Structure (SMILES) | hERG current change (%, negative = inhibition) at 1uM [%] |
| --- | --- |
| Cc1cccc(NC(=O)CN(C)S(=O)(=O)c2ccc3c(c2)n(C)c(=O)c(=O)n3C)c1C | 2.02 |
| CCN(C#N)c1nc(N(C)C)nc(N(C)C)n1 | -1.97 |
| CCn1c(SCC(=O)Nc2cc(C)on2)nc2c([nH]c3ccccc32)c1=O | 11.6 |
| O=C(CN1CCSCC1)c1c[nH]c2ccccc12 | 7.98 |
| COc1ccc(-n2nc(C)cc2N)cc1 | 7.31 |
| Cc1ccc(CNC(=O)c2sc3nc4c(c(C(F)(F)F)c3c2N)CCC4)cc1 | -4.66 |
| NC1=NC2(CCCC2)N=C(Nc2ccccc2)N1 | 16.2 |
| O=C(COc1ccc(S(=O)(=O)NC2CCCCC2)cc1)NC1CCCCC1 | -21.7 |
| COc1cc(C(=O)NS(=O)(=O)c2ccccc2C)ccc1Cc1cn(C)c2ccc(NC(=O)OC3CCCC3)cc12 | 2.86 |
| Cc1c(OCC(=O)N2CCC(C(=O)O)CC2)ccc2c1oc(=O)c1ccccc12 | 6.5 |
| O=C(C1=C(O)/C(=C/c2ccc(O)cc2)CCC1)C(F)(F)F | 7.81 |
| CN(C)CCNC(=S)Nc1ccc(Br)cc1 | 12.3 |
| O=C(CSc1nnnn1C1CCCC1)Nc1cccc(NC(=O)c2ccco2)c1 | -17.9 |
| O=C(NCc1ccc(C(F)(F)F)cc1)C1CC(c2cccc(F)c2)=NO1 (centres unmarked) | 14.8 |
| COc1ccccc1CNC(=O)c1csc(Cc2ccc(Cl)cc2)n1 | 5 |
| CCOc1cccc(OCCOCCN(C)C)c1.O=C(O)C(=O)O | 5.73 |
| COC(=O)Cn1c2ccccc2c2nc3ccccc3nc21 | 16.1 |
| O=C(Cn1cnc2c(cnn2-c2ccc(F)cc2)c1=O)NCc1ccco1 | 7.09 |
| O=C(COc1ccc(F)cc1)Nc1ccccc1N1CCOCC1 | 0.229 |
| COc1ccc(CCN2CC(C(=O)N3CCC(O)(c4ccccc4)CC3)CCC2=O)cc1 (centres unmarked) | 8.16 |
| COc1ccc(NC(=O)C2CC(=O)n3cnnc3S2)cc1 (centres unmarked) | 3.46 |
| Nc1nnc(SCC(=O)NNC(=O)c2ccc(Cl)cc2)s1 | 4.21 |
| Cc1cccn2c(=O)c3cc(C(=O)NC4CCCC4)c(=N)n(C4CCCC4)c3nc12 | -87 |

| Structure (SMILES) | hERG current change (%, negative = inhibition) at 1uM [%] |
| --- | --- |
| N#C/C(=C/c1ccc(F)cc1)S(=O)(=O)c1ccccc1 | 15.3 |
| Cn1nc(C(=O)Nc2c(-c3ccccc3)nc3sccn23)c2ccccc2c1=O | 11.3 |
| CCN(CC)C(=O)C(=O)N/N=C/c1ccc(Cl)cc1Cl | 15.5 |
| COc1ccc(CN2C(=O)c3cccnc3C2=O)cc1S(=O)(=O)N1CCOc2ccccc21 | 8.41 |
| COc1ccc(NC(=O)C2CCC(CNS(=O)(=O)c3csc(C(N)=O)c3)CC2)cc1OC (centres unmarked) | 9.25 |
| O=C(NC1=NCCS1)c1cccc(NC(=O)c2ccco2)c1 | 4.96 |
| O=c1[nH]cnc2c1N=C(c1cccc([N+](=O)[O-])c1)CC(c1ccccc1)N2 (centres unmarked) | 5.58 |
| COc1cccc(NC(=S)NNC(=O)Cn2nc([N+](=O)[O-])cc2C)c1 | 10.8 |
| Cc1ccccc1Oc1cccc(C(=O)/C(C#N)=C/N(C)C)c1 | 2.42 |
| CN(C(=O)c1ccc(-c2ccccc2)cc1)C1CCCCC1 | 8.17 |
| Cc1cc(C(=O)NN)c(C)o1 | 6.37 |
| COc1ccccc1Cn1c(=S)[nH]c2cc(C(=O)N3CCCC3)ccc2c1=O | 15.5 |
| CCOC(=O)CSc1ccc(C(=O)NCCCN2CCOCC2)cc1[N+](=O)[O-] | 12.1 |
| O=C(Nc1cc([N+](=O)[O-])ccc1Cl)c1ccc2c(c1)OCO2 | 1.35 |
| O=c1[nH]c(C2CCN(S(=O)(=O)c3ccc(S(=O)(=O)NC4CC4)cc3)CC2)nc2c1nnn2Cc1ccc(F)cc1 | 8.18 |
| CCN(c1ccccc1)S(=O)(=O)c1ccc(C(=O)OC(C)C(=O)NCCC2=CCCCC2)cc1 (centres unmarked) | -0.469 |
| CCOC(=O)CCN(Cc1sccc1C)S(=O)(=O)c1ccc(F)cc1 | 8.05 |
| O=C(NCc1ccc2c(c1)OCO2)c1ccco1 | 6.56 |
| CCCC(=O)NC(C)C(c1cccs1)N1CCN(c2ccccc2)CC1 (centres unmarked) | -1 |
| Cc1ccn2c(=O)nc(SCC(=O)N3CCC(Cc4ccccc4)CC3)nc2c1 | -11.4 |
| C=CCNC(=S)N1CCC(C(=O)c2ccc(C)cc2)CC1 | 1.96 |
| COc1ccccc1N1CCN(C2CCCN(C(=O)CCc3cnccn3)C2)CC1 (centres unmarked) | 14 |
| CN1CCC(=NNC(=O)c2ccc(N(Cc3ccc(Cl)cc3)S(C)(=O)=O)cc2)CC1 | -1.1 |

| Structure (SMILES) | hERG current change (%, negative = inhibition) at 1uM [%] |
| --- | --- |
| c1ccc(-c2csc3ncnc(NCc4ccccn4)c23)cc1 | 0.364 |
| COCCNC(=O)C(c1ccc(C)o1)N(C(=O)c1snc(C(N)=O)c1N)c1cccc(C)c1 (centres unmarked) | -2.24 |
| CN(C)/C=C(/C(=O)c1ccccc1)n1cncn1 | 14.6 |
| COc1ccc(C2CC(=O)Nc3sc(=N)c4c(N)c(C#N)c(N)nc4c32)cc1OC (centres unmarked) | 12.9 |
| COc1ccc(-n2nc([N+](=O)[O-])c(=NCc3cccnc3)n2O)cc1 | 7.08 |
| CCOC(=O)C(NCc1ccccc1OC)(NC(=O)CC)C(F)(F)F (centres unmarked) | 13.7 |
| Cc1cc(C)c(S(=O)(=O)C(C)C)c(=O)[nH]1 | 12.2 |
| CCC1(C)CC(c2csc(N)n2)CCO1 (centres unmarked) | -6.74 |
| CCOc1ccc(N(CC(=O)N2CCN(Cc3ccccc3)CC2)S(C)(=O)=O)cc1 | 7.68 |
| O=C(COC(=O)c1ccccc1Br)Nc1nnc(-c2ccccc2)o1 | 0.935 |
| O=Cc1c(NCc2cccc(F)c2)c2ccccc2[nH]c1=O | 11.8 |
| O=S(=O)(NC1=NCCC1)c1ccc(F)cc1 | 14.8 |
| COc1ccccc1NC1=NCCS1 | -11.3 |
| O=[N+]([O-])c1ccc(OCCO)nc1 | 12.3 |
| Cc1cccc(NC(=O)CSCC(=O)Nc2cc(Cl)ccc2N2CCN(C)CC2)c1 | -25.9 |
| Cc1cc(C)nc(SCC(=O)c2ccc(F)c(C)c2)n1 | 10.9 |
| Cc1cc(C)nc(/N=C(\N)Nc2ccc(SC(F)F)cc2)n1 | -52.9 |
| O=C(NN1C(=O)/C(=C/c2cccs2)SC1=S)c1cccnc1 | 11.6 |
| Cc1c(N2C(=O)C(=O)/C(=C(/O)c3ccccc3)C2c2ccc(F)cc2)c(=O)n(-c2ccccc2)n1C (centres unmarked) | 8.19 |
| C/C(=N\c1nc2ccccc2n1C)c1cc(Cl)ccc1O | 3.41 |
| C=CCN1C(=O)CSC1=Nc1ccc(NC(C)=O)cc1 | 2.58 |
| O=C(NC(=S)Nc1ncccn1)c1ccccc1Br | 12.3 |
| O=C(CCc1ccccc1)NC(=S)Nc1cccc(C(=O)O)c1 | 1.62 |

| Structure (SMILES) | hERG current change (%, negative = inhibition) at 1uM [%] |
| --- | --- |
| CC(C)(C)c1ccc(S(=O)(=O)O/N=C2/CCCCC2c2ccc([N+](=O)[O-])cc2[N+](=O)[O-])cc1 (centres unmarked) | 11 |
| CCc1nnc(NC(=O)[C@@H]2CCCN2S(=O)(=O)c2ccc3c(c2)OCCO3)s1 | 10.2 |
| CC(NS(=O)(=O)c1ccccc1)C(c1cccs1)N1CCOCC1 (centres unmarked) | 6.92 |
| CCn1c(SCC(=O)Nc2ccc(OC)c(OC)c2)nnc1-c1ccco1 | 9.23 |
| CCCC(c1nnnn1Cc1ccccc1)N1CCN(c2ccccc2OC)CC1.Cl (centres unmarked) | 15.2 |
| Cc1[nH]c2ccc(C(=O)NCCCN3CCCCCC3)cc2c1C | 4.52 |
| Cc1cccc(N2CCN(C(=O)C3CCN(S(=O)(=O)c4cccnc4)CC3)CC2)c1C | -0.987 |
| Cn1ccnc1SCC(=O)Nc1ccccc1 | -1.32 |
| O=C(NCCS(=O)(=O)N1CCN(c2cccc(Cl)c2)CC1)c1ccc2c(c1)OCO2 | 15.7 |
| CCCC12CN3CC(C)(CN(C1)C3c1ccc(OC)cc1)C2=O (centres unmarked) | 5.01 |
| CCN1CCN(c2nc(C)c3c(n2)CCCC3=O)CC1 | 14.1 |
| Cc1cc(=O)n2nc(-c3ccccc3)sc2n1 | 5.68 |
| COC(=O)c1ccc2c(=O)n(C3CCCCC3)c(SCC#N)nc2c1 | 17.3 |
| Cc1cccc(NC(=O)CN2C(=O)S/C(=C\c3ccc(O)c([N+](=O)[O-])c3)C2=O)c1 | 12.7 |
| CCS(=O)(=O)N1CCC(NC(=O)c2ccco2)CC1 | 16.6 |
| O=C(NCCOc1ccc(F)cc1)C1CCC(=O)N(CCCN2CCCC2=O)C1 (centres unmarked) | 14.2 |
| CCOC(=O)c1cc2c(ccn2C)n1CC(=O)N(Cc1ccccc1)c1ccccc1 | -2.73 |
| O=C(NCCOc1ccccc1)c1ccc2n[nH]nc2c1 | 0.707 |
| Cc1nc2cc(C(F)(F)F)ccc2n1C1CCN(Cc2nnnn2Cc2ccc3c(c2)OCO3)CC1 | -32.4 |
| COc1cc(/C=C2/C(=O)NN(c3ccc(Cl)cc3)C2=O)ccc1OC(=O)c1ccco1 | 14.6 |
